Source: the RNAGym collection of RNA variant scans (doi:10.7554/elife.90254)
The source gives no read counts; variants with many changes may rest on few reads.

B1: OR4K15 (parent)
chain: GUUAACGGUCAUAGGCCAUGGAAACUAGGAGCACCAUUUCGCUGCCAGUGAAGAAAUGAACAAAGAAAAUCUGGGCCAGGCAGGCAUCAAAAGAAAUAGUCUUGCGCUCAACCAGAAAGUCUGUAAUCAUUUUAAGGGUA

Variants of: B1
Assay: self-cleavage, relative activity (ratio to wild type); higher = more cleavage; in vitro, sequencing; the parent is a self-cleaving ribozyme
G21A A33U U37C A51U gave a self-cleavage of 1.17.
For G20A A24U U37A, the self-cleavage was 0.72.
Work on G20A C45U A51G A60G yielded a self-cleavage of 0.85.
Work on A22G A36U A55G U72A A94G yielded a self-cleavage of 0.09.
A22G A63G A68G U108C showed a self-cleavage of 0.02.
U19C A66G A111G gave a self-cleavage of 0.06.
A22G A90G G138U showed a self-cleavage of 1.54.
A22G G44A A68G showed a self-cleavage of 0.42.
Work on U19C U38C C42U U131C U132C yielded a self-cleavage of 0.7.
Variant A22G A110C U127C A140G has a self-cleavage of 0.11.
A22G A60G A111G A134G A135G gave a self-cleavage of 0.04.
Work on G20A A64G A98G A111U A118G yielded a self-cleavage of 0.03.
Work on U19C U26C A86U A94G U120A yielded a self-cleavage of 2.83.
In the case of G20C A64U U102C, the self-cleavage is reported as 1.67.
With A22G A23G U37C the self-cleavage was 0.92.
Work on U19C A60G A89G U122C yielded a self-cleavage of 1.15.
Variant A22G A54G U122C has a self-cleavage of 0.88.
A22G A30G A51G A59U C128A showed a self-cleavage of 0.54.
In the case of A22G U37A A47G A54G G74A A135G U139C, the self-cleavage is reported as 0.24.
A22G A36G U39C A117G U131C gave a self-cleavage of 1.33.
Variant G21U U49G A95G U102C has a self-cleavage of 0.75.
A22G A52G A67U U108C showed a self-cleavage of 0.04.
A22G A64G A91G A118U U120A A126G U127C showed a self-cleavage of 0.34.
With A22G A92G A110C U120C the self-cleavage was 0.11.
For U19C U26C A56G U57C, the self-cleavage was 0.62.
Work on A22G G29U A47G A54G A60G U132C yielded a self-cleavage of 0.61.
Work on U19C G80A A82G yielded a self-cleavage of 0.15.
A22G A67G A110G showed a self-cleavage of 0.13.
Work on A22G A23U A33U A56G U70C A125G yielded a self-cleavage of 0.85.
Work on U19G A33G A67G yielded a self-cleavage of 1.55.
A22G A89U A118C gave a self-cleavage of 0.46.
With A22G U26C A92U A94G U97C A118G the self-cleavage was 0.41.
A22G A60U A92G A134G showed a self-cleavage of 1.82.
With U19G U43C U49A the self-cleavage was 0.78.
A22G A47G A52G A56G gave a self-cleavage of 1.07.
In the case of A22G A92G G104A, the self-cleavage is reported as 0.05.
A22G A95G U132A gave a self-cleavage of 1.69.
In the case of A22G A51G U72A A94G G104A, the self-cleavage is reported as 0.02.
Work on U19C U49C A59G A60G yielded a self-cleavage of 1.1.
With A22G A82G U131C the self-cleavage was 0.51.
For U19C A60G U72A A91G, the self-cleavage was 0.09.
In the case of U19C U72C A94G U102C, the self-cleavage is reported as 0.16.
A22G U38C A51G U100C gave a self-cleavage of 1.47.
In the case of A22G C45A A47G, the self-cleavage is reported as 1.49.
In the case of U19C A63G A91G A135G, the self-cleavage is reported as 0.57.
Variant G21A G73C A82G U87C has a self-cleavage of 0.12.
In the case of A22G A52G A98U U122C A140G, the self-cleavage is reported as 1.89.
With A22G A47U A90C A129G the self-cleavage was 0.54.
With A22G U39C U108C A125G the self-cleavage was 0.
For U19C G21A A22C U38C A82G, the self-cleavage was 0.61.
In the case of A22G A96G A114U, the self-cleavage is reported as 0.08.
A22G A27G U38C A89G A95G A118U showed a self-cleavage of 1.02.
In the case of A22G A78U A91G, the self-cleavage is reported as 0.12.
Work on U19C A86U A116U yielded a self-cleavage of 0.42.
With A22G U37A A55G A60G A134G the self-cleavage was 0.8.
With U19C A89G U122C the self-cleavage was 0.91.
With A22G A52G A56G the self-cleavage was 0.17.
U19C U43G A51G gave a self-cleavage of 0.99.
A22G A47U U130C gave a self-cleavage of 0.73.
Variant U19C C35U G65U A92U U103C has a self-cleavage of 0.18.
Variant A22G A54G U70C A86C A140G has a self-cleavage of 0.06.
A22G A56G A98U A126G showed a self-cleavage of 1.25.
A22G A55G A96G A134G gave a self-cleavage of 1.78.
With U19G U37C A92G the self-cleavage was 1.21.
With U19C U39C A125U the self-cleavage was 2.21.
With A22G A56G A82G A114G the self-cleavage was 0.03.
Work on G21U U70C U87C yielded a self-cleavage of 0.74.
A22G U38C C113U gave a self-cleavage of 0.15.
For A22G U38C U57G A64G, the self-cleavage was 1.78.
In the case of U19C C32U A86G U130C U139C, the self-cleavage is reported as 1.29.
In the case of U19C A86G U108C, the self-cleavage is reported as 0.02.
In the case of A22G G106U U120C A129G, the self-cleavage is reported as 0.
Variant A22C C105U A117U has a self-cleavage of 0.25.
For A22G U43C A47G U57A A68G U102A A118G, the self-cleavage was 0.07.
For U19C U43C U131C, the self-cleavage was 1.2.
A22G A24G A51G gave a self-cleavage of 1.28.
Work on A22G A54G A55G yielded a self-cleavage of 1.11.
Work on A22G A64U A69G A98U yielded a self-cleavage of 1.37.
For U19C A67U A94G, the self-cleavage was 1.59.
For U19C U87C U100C U122A, the self-cleavage was 1.44.
For A22C A23U A118U, the self-cleavage was 0.94.
In the case of G20A A24G A36G U39C A95G, the self-cleavage is reported as 0.49.
In the case of A22C A59G U120A, the self-cleavage is reported as 1.26.
